This is one part of the list.
biological target: T1, OsWOX13 (Oryza sativa, UniProt Q5QMM3 1-267); experiment: protein-binding microarray (RPBM); PBS, 2% BSA, 51.3 ng/ul salmon testes DNA, 50 uM zinc acetate, 200 nM TF, 25 C, 1 h; high values mean tight binding; conditions: protein: recombinant; tags: N-terminal polyhistidine and DsRed monomer fusion (pET32a); label: CyDye5-dUTP incorporated in the synthesized complementary strand; 3' TTTTT single-stranded linker to array surface; dsDNA, one strand shown
T1 sequence: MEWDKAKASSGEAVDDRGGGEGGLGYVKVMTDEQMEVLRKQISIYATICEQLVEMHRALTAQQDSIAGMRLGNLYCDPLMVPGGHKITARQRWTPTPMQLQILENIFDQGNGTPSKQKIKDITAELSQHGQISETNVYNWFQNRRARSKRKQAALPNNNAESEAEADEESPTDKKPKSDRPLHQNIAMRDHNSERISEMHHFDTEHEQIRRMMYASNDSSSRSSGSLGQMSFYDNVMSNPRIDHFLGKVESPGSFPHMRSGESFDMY
Outline: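 The binding signal is fluorescence intensity per array feature (arbitrary units). Readings came from an Axon 4000B scanner after a washed, 2% BSA-blocked, double-stranded custom Agilent array had been incubated for 1 h at 25 °C with 200 nM protein and 50 µM zinc acetate. The protein was a Ni–NTA-purified transcription factor fused N-terminally to polyhistidine and DsRed, expressed in E. coli BL21-CodonPlus.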

| Sequence | binding signal |
| --- | --- |
| CCCAATCACCCTACCATCATTCATGTTACAAGAGTACCTGCGGAGTCACCTAGTGCAG | 3390 fluorescence intensity (a.u.) |
| ATTCAGTCATTTCCTAATTGTATTTCTATATGGACTCTAGCGGAGTCACCTAGTGCAG | 11500 fluorescence intensity (a.u.) |
| ATCCAGATTTTCCATTTCATTAATTATTACCGCTCCAACCCGGAGTCACCTAGTGCAG | 8500 fluorescence intensity (a.u.) |
| CCTGTAATGGATGCGCGGAATTGACCCAAGGCCAAGGCACCGGAGTCACCTAGTGCAG | 6100 fluorescence intensity (a.u.) |
| TCGCAATCAAGAAATCAAATGTGACAGTCCAAAGGGAGATCGGAGTCACCTAGTGCAG | 18300 fluorescence intensity (a.u.) |
| GTCCACCATTACTTCCAAATTGGGATTTATCACACATCACCGGAGTCACCTAGTGCAG | 3210 fluorescence intensity (a.u.) |
| AAAACAAATTATACTGGCGCAAATTCTTTTCGCGATCTTGCGGAGTCACCTAGTGCAG | 6940 fluorescence intensity (a.u.) |
| TATAGATTTAATTCATTGTTTATGTTTAGAACTATCTCATCGGAGTCACCTAGTGCAG | 4940 fluorescence intensity (a.u.) |
| CCTTCCGTCCAATTAACTGCGACCAAATCTGGGTTTATTTCGGAGTCACCTAGTGCAG | 9320 fluorescence intensity (a.u.) |
| TGTGACAGGGATTTGGAATAAGTCCCTGAACCAAACAGCCCGGAGTCACCTAGTGCAG | 4450 fluorescence intensity (a.u.) |
| ATTTCTGATTTCTCCTTTCTCCCCTCGAGTCTGATCCTCCCGGAGTCACCTAGTGCAG | 6370 fluorescence intensity (a.u.) |
| ATGATTGCAGCCTCATATGCGTTGCACACTTGTCACAGCACGGAGTCACCTAGTGCAG | 11500 fluorescence intensity (a.u.) |
| TTGCTAATTAATTTATGTTAATTAGTAGCTAACCTAGCTGCGGAGTCACCTAGTGCAG | 65200 fluorescence intensity (a.u.) |
| TCACTTCTTGTTATCAATTATGACATGTCACATATGTATACGGAGTCACCTAGTGCAG | 10400 fluorescence intensity (a.u.) |
| GATGAATTTAATTTAATTTATTAGTTAGTGAGTCCCGAGGCGGAGTCACCTAGTGCAG | 43500 fluorescence intensity (a.u.) |
| ATATATTATGTGCACAAATTGAAGAAGAAGCTAACACGATCGGAGTCACCTAGTGCAG | 3220 fluorescence intensity (a.u.) |
| ATTAATTAAAATCGCGCCCAATTAATCATTTAATCCATCCCGGAGTCACCTAGTGCAG | 40700 fluorescence intensity (a.u.) |
| ATATTATTTATAAATTGTGTGTGCAACTGACTTGTGGGCCCGGAGTCACCTAGTGCAG | 3490 fluorescence intensity (a.u.) |
| TTTAATTCTATGAAATTTCAATCCGTGCAAGTTTTGGAAACGGAGTCACCTAGTGCAG | 8150 fluorescence intensity (a.u.) |
| ATAATACAAATTGTATGTAACTTTTCAAAGATCCTGTGATCGGAGTCACCTAGTGCAG | 4880 fluorescence intensity (a.u.) |
| AGCAATTAGGATTAAAAGATTTGTCTCGTAAATTAGTCGCCGGAGTCACCTAGTGCAG | 11300 fluorescence intensity (a.u.) |

| Sequence | binding signal |
| --- | --- |
| TAATATCCACTTAATTAATTAACTAAAGATATAAGATATACGGAGTCACCTAGTGCAG | 8660 fluorescence intensity (a.u.) |
| TTTTGTATGAACCAATTAGATTGGTCCGTAGTTTACCTGTCGGAGTCACCTAGTGCAG | 5440 fluorescence intensity (a.u.) |
| CAAATTAGATAATGCAAAGTTGAATGATTGTTCAAAGTCACGGAGTCACCTAGTGCAG | 21000 fluorescence intensity (a.u.) |
| ACAGGAAGGTAATTGAATCGTATGTCCAAACGAGGCTTCTCGGAGTCACCTAGTGCAG | 5880 fluorescence intensity (a.u.) |
| TGATGATGGATGGAGTAGTGATTTCCAGCGGGTGATCGATCGGAGTCACCTAGTGCAG | 11300 fluorescence intensity (a.u.) |
| ATCTGCGCGGTAAAATCAATAAAACCTTCATTTCACTTAACGGAGTCACCTAGTGCAG | 10200 fluorescence intensity (a.u.) |
| TGTTTAGTTAATCTACTGTTAACTTTAGTATTAGCCGTGGCGGAGTCACCTAGTGCAG | 4940 fluorescence intensity (a.u.) |
| CTCATAACACTTTCCTAATTGCCTCATATGCGGCCTTCCCCGGAGTCACCTAGTGCAG | 7620 fluorescence intensity (a.u.) |
| TCCTTTCATAATTAATTGCGTGGGAAATTATTTATTTAGCCGGAGTCACCTAGTGCAG | 39400 fluorescence intensity (a.u.) |
| TAAGAAGATGCCATCAATCAAACACACCCATGGTTTCACACGGAGTCACCTAGTGCAG | 4780 fluorescence intensity (a.u.) |
| ATAAACAAATTCCAAATTGACTTTTAGGCTGACGCGGAGCCGGAGTCACCTAGTGCAG | 21000 fluorescence intensity (a.u.) |
| TTTAACAAGCTAATTATTGACCAATGACGTGGCTGAACAGCGGAGTCACCTAGTGCAG | 31200 fluorescence intensity (a.u.) |
| CTATTATTGATTGCTCTACGGATGGCATGGATGGAGGTTGCGGAGTCACCTAGTGCAG | 47400 fluorescence intensity (a.u.) |
| CTGAATAAATTTAGCTGGTTGTGTGGTGGAGGAGATGTGTCGGAGTCACCTAGTGCAG | 5770 fluorescence intensity (a.u.) |
| CAAAATGGTTAACGACGTGATTGGCTCTATACAATTTGAACGGAGTCACCTAGTGCAG | 30000 fluorescence intensity (a.u.) |
| AGCCAAATTAGTACCAAACTTTGACCAACTTTCGCTAGGACGGAGTCACCTAGTGCAG | 13900 fluorescence intensity (a.u.) |
| ATATCAAGCCAATCATCCGCTAAAATAATGCCATATTCTTCGGAGTCACCTAGTGCAG | 5360 fluorescence intensity (a.u.) |
| TCAACAGATTGATCTCTGAAGCAGTGGCTAATTTCTATTGCGGAGTCACCTAGTGCAG | 26400 fluorescence intensity (a.u.) |
| AGTTTAATGGTGATAATATGATTTCAAAATCTGACAACCGCGGAGTCACCTAGTGCAG | 12500 fluorescence intensity (a.u.) |
| TCCTTATTATATTACCAATCACATATAACCTGAGTTGTTTCGGAGTCACCTAGTGCAG | 20300 fluorescence intensity (a.u.) |
| TTATTTATGGAATAGATTAAATCATTATATGTCTATAATCCGGAGTCACCTAGTGCAG | 3770 fluorescence intensity (a.u.) |
